Holding throughout (assay): glycan array binding signal (z-score within array); higher = stronger binding
What all share (conditions): glycan notation: IUPAC condensed, linker removed

Experiment [1] deals with Gal(b1-3)GlcNAc(b1-3)Gal(b1-4)GlcNAc(b1-3)Gal(b1-4)GlcNAc(b1-2)[Gal(b1-3)GlcNAc(b1-3)Gal(b1-4)GlcNAc(b1-3)Gal(b1-4)GlcNAc(b1-6)]Man(a1-6)[Gal(b1-3)GlcNAc(b1-3)Gal(b1-4)GlcNAc(b1-3)Gal(b1-4)GlcNAc(b1-2)Man(a1-3)]Man(b1-4)GlcNAc(b1-4)[Fuc(a1-6)]GlcNAc. Summed up: (§1)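 Arrays were curated from the Consortium for Functional Glycomics database, 3228 in total, and kept only where the protein sequence was available. Binding is expressed as a within-array Z-score. This score was averaged across arrays of the same protein sequence at different concentrations or buffers and across linkers, and negative values can be read as non-binding.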

In experiment [2] the test system is Gal(b1-3)GlcNAc(b1-3)Gal(b1-4)GlcNAc. Summed up:
as §1

Experiment [3] deals with Gal(b1-3)GlcNAc(b1-6)GalNAc. Summed up: as §1
Experiment [4] concerns Gal(b1-3)GlcNAc(b1-3)Gal(b1-4)Glc. Summed up: as §1
Experiment [5] relates to Gal(b1-3)[Fuc(a1-4)]GlcNAc(b1-2)Man(a1-3)[Gal(b1-3)[Fuc(a1-4)]GlcNAc(b1-2)Man(a1-6)]Man(b1-4)GlcNAc(b1-4)[Fuc(a1-6)]GlcNAc. Summed up: as §1
Another experiment concerns Gal(b1-3)GlcNAc(b1-2)Man. Summed up: as §1
Experiment [6] concerns Gal(b1-3)[Fuc(a1-4)]GlcNAc(b1-2)Man(a1-3)[Gal(b1-3)[Fuc(a1-4)]GlcNAc(b1-2)Man(a1-6)]Man(b1-4)GlcNAc(b1-4)GlcNAc. Summed up:
as §1

The subject of experiment [7] is Gal(b1-3)GlcNAc(b1-3)Gal(b1-4)[Fuc(a1-3)]GlcNAc. Summed up:
as §1

Experiment [8] deals with Gal(b1-3)GlcNAc(b1-3)Gal(b1-4)[Fuc(a1-3)]GlcNAc(b1-6)[Gal(b1-3)GlcNAc(b1-3)]Gal(b1-4)Glc. Summed up:
as §1

For another experiment, the system named is Gal(b1-3)GlcNAc. Summed up: as §1

The entries come from a sample that favours the strongest signals as a whole.

For the substance “Thrombomodulin Extracellular (Homo sapiens) (chain not printed)”, the “glycan array binding signal (z-score)” value in experiment [1] was 7.65; in experiment [2], -0.382.

Take MBP (Homo sapiens) (chain not printed): the “glycan array binding signal (z-score)” value in experiment [3] is -0.396.

For “NCAM1 (Homo sapiens) (chain not printed)”, the “glycan array binding signal (z-score)” value in [4] was -0.354.

With “M-Ficolin G221F A256V (Homo sapiens) (chain not printed)”, in experiment [5], the “glycan array binding signal (z-score)” value was -0.332.

“M-Ficolin A256V (Homo sapiens) (chain not printed)”: the “glycan array binding signal (z-score)” value in experiment [5] was -0.128.

In the case of “Meso764 (Homo sapiens) (chain not printed)”, the “glycan array binding signal (z-score)” value with Gal(b1-3)GlcNAc(b1-2)Man is 0.689; in experiment [2], -0.725; in experiment [6], 5.6.

As to “Gal 8 long (Homo sapiens) (chain not printed)”, the “glycan array binding signal (z-score)” value in [4] is -0.22.

As to FGF2 (chain not printed), the “glycan array binding signal (z-score)” value in experiment [7] turned out to be 0.708.

For “M-Ficolin G221F (Homo sapiens) (chain not printed)”, in experiment [8], the “glycan array binding signal (z-score)” value is -0.162.

For the substance “Gal 3 (Homo sapiens) (chain not printed)”, the “glycan array binding signal (z-score)” value is 0.206 in experiment [4] and -0.219 in experiment [8].

As for “CLEC-2 (Homo sapiens) (chain not printed)”, the “glycan array binding signal (z-score)” value in [5] stood at 0.664.

As for “Collectin K1 (Homo sapiens) (chain not printed)”, the “glycan array binding signal (z-score)” value with Gal(b1-3)GlcNAc is -0.094; in experiment [6] it was 0.194; in [5] it was 2.11.
